In PubChem BioAssay AID488969 (Vanderbilt High Throughput Screening Facility, 2010):
Whole data set: some 110,000 compounds, median “z-score” near -0.1, cut for the highest 2% near 2. The list shows a part of the results. Activity calls are given as the source filed them.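 The calls were made as follows: active = z-score in the third read window above 3 or below -3; inactive = the rest.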

Target: Metabotropic glutamate receptor 8 (Rattus norvegicus) (UniProt P70579)
Assay: mGluR8 Gi/Go-coupled signaling modulation – cell-based, rat, thallium flux, HTS, primary screen (AID 488969)
Conditions: HEK293 rat mGluR8, GIRK (G protein-gated inwardly rectifying potassium channel) thallium flux, FluoZin2; at 10 µM; stronger effect = higher value; submaximal glutamate (EC20) added with thallium

Chain of UniProt P70579 (P70579 whole entry, looked up): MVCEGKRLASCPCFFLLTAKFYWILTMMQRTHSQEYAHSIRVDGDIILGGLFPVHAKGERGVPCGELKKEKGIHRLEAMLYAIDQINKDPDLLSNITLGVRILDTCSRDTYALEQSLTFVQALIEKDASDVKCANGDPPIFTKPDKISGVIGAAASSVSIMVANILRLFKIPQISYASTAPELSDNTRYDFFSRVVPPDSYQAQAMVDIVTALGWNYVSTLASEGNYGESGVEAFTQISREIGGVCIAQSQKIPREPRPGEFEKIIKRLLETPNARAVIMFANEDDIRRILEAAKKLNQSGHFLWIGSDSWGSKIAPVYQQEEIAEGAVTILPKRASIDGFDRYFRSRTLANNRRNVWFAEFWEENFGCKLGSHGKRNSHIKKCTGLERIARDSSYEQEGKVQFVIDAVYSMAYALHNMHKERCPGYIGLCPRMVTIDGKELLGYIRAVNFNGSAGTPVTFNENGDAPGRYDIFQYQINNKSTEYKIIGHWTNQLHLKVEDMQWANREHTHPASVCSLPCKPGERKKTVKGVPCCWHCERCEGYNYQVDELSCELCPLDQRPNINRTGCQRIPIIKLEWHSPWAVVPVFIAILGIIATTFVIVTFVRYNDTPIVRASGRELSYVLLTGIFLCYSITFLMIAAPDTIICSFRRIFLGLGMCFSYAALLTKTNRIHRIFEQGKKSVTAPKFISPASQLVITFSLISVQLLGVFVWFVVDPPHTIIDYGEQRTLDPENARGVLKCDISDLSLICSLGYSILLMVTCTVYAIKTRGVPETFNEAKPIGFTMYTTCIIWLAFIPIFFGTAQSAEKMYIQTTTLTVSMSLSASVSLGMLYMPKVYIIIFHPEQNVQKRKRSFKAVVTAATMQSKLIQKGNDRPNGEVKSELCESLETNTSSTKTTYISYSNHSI

SMILES	z-score
O=[N+]([O-])c1cc(C(F)(F)F)ccc1-n1nnc2ccccc21	-0.202
Cc1cccc(CSC2=CS(=O)(=O)c3ccccc3N2)c1	0.0419
COc1ccc(CCNC(=O)CC2Oc3ccc(Cl)cc3NC2=O)cc1OC (centres undefined)	-0.723
COc1ccc(N2C3=C(CC4=C2CC(C)(C)CC4=O)C(=O)CC(C)(C)C3)cc1	1.09
O=C(NCc1ccco1)c1cccn2c(=O)c3c4c(sc3nc12)CCCC4	-0.173
Cc1nn(Cc2ccccc2)c(Cl)c1C(=O)OCc1nnc(-c2ccccc2)o1	-0.0192
Cc1noc(/C=C/N(C)C)c1S(=O)(=O)N1CCCC(C(=O)NC(C)c2ccccc2)C1 (centres undefined)	-0.241
CC(c1ccccc1)N(CCC(c1ccccc1)C1CCOC(C)(C)C1)C(=O)c1ccco1 (centres undefined)	0.131
CCOC(=O)Cc1csc(NC(=O)c2cccnc2)n1	-0.484
COc1ccccc1OCc1nnc(SCC(=O)Nc2ccc(C)cc2)n1C	1.47
CCn1nnnc1SCC(=O)Nc1ccc2c(c1)OCCO2	0.914
Cc1sc2nc(C3CC3)nc(NCCNS(=O)(=O)c3ccccc3)c2c1C	-0.674
Cc1ccc(NC(=O)CCNC(=O)c2ccccc2Cl)cc1S(=O)(=O)N(C)C	-0.00648
COc1ccc(C2SCCN2S(=O)(=O)c2ccccc2)cc1OC (centres undefined)	0.808
Cc1c(Cl)cccc1NC(=S)NCc1ccccc1	0.394
S=C(Nc1ccccc1)c1ccccn1	2.52
COC(=O)c1c(NC(=O)CC2Nc3ccccc3NC2=O)sc(C)c1C (centres undefined)	-0.371
O=C(NCc1cccnc1)c1sc2ccccc2c1Cl	-0.216
CCOC(=O)c1c(NC(=O)CSc2nc3c(c(=O)n(C)c(=O)n3C)n2C(C)C)sc(C)c1C	0.0988
Cc1ccc(S(=O)(=O)Nc2cccc(/C=C/C(=O)O)c2)cc1	-0.213
CCOC(=O)c1cc(CC)sc1/N=C/C1=C(O)CCCC1=O	-0.316
CCOC(=O)c1c(-c2cccc([N+](=O)[O-])c2)csc1N	-0.461

SMILES	z-score
N#Cc1nc(-c2ccco2)oc1NCc1ccco1	0.193
O=S(=O)(c1cccs1)N1CN(Cc2ccc(Cl)cc2)c2nc3ccccc3nc21	-0.298
Cc1nnc(SC(C)C(=O)Nc2ccc(S(=O)(=O)N3CCCCC3)cc2)s1 (centres undefined)	-0.135
Cc1ccc(Nc2nc(-c3ccc(S(=O)(=O)N4CCCC4)cc3)cs2)cc1C	-0.192
COc1cc(CN2CC(=O)N(c3ccc(C)cc3)C2=S)cc(OC)c1OC	-1.1
CC(=O)N1CCc2cc(S(=O)(=O)NC(CC(C)C)C(=O)N3CCc4ccccc4C3)ccc21 (centres undefined)	0.864
COc1ccc(OC)c(-c2cc(C(=O)Nc3cc(C)on3)no2)c1	0.941
COc1ccc(/C=N\N=C2/SC(CC(=O)O)C(=O)N2c2ccc(O)cc2)cc1OC (centres undefined)	-0.0449
O=C(NCCCCCCNC(=O)N1CCCCCC1)N1CCCCCC1	0.00943
Cc1ccc(/C=N/NC(=O)c2ccncc2)o1	-0.098
Cc1ccc(S(=O)(=O)N2CCN(C(=O)/C=C/c3ccco3)CC2)cc1	-0.368
O=C(NC(NNc1ccc([N+](=O)[O-])cc1)(C(F)(F)F)C(F)(F)F)c1ccc(Cl)cc1	0.216
Cc1ccc(N2CCN(/N=C/c3c(C)nn(-c4ccccc4)c3Cl)CC2)cc1	0.225
CCOc1ccc(OCC(=O)c2c(O)c3ccccc3oc2=O)cc1	-0.988
CCOC(=O)Cn1c(-c2nonc2NC(=O)c2ccccc2F)nc2ccccc21	-0.605
CCCC(C)NC(=O)c1ccc2[nH]c3c(c2c1)CC(C)CC3 (centres undefined)	-0.815
O=C(O)Cn1nc(-c2ccccc2)oc1=O	-0.197
O=C(/C=C/Nc1cccc([N+](=O)[O-])c1)c1ccco1	-0.108
CN(C)C(=O)CN(c1ccc2c(c1)OCO2)S(C)(=O)=O	-0.0253
CCC(=O)NC(C)C(c1cccs1)N1CCN(c2ccccc2)CC1 (centres undefined)	-0.365
O=c1[nH]c(SCc2cccc(Cl)c2)nc2c1CCCC2	-0.579
CC1CCc2nn(CC(=O)NCCCN3CCOCC3)cc2C1 (centres undefined)	-0.0438

SMILES	z-score
Cc1ccc(C2(CC(=O)N3CCCC3)CCOC(C(C)C)C2)cc1 (centres undefined)	-0.0604
CCc1nc(N2CCN(C(=O)c3ccco3)CC2)c2c3c(sc2n1)CCCC3	-0.311
CC1(C)Cc2[nH]c(=O)c(C#N)cc2CS1	0.0257
CCN1C(=O)C(Cc2nc3ccccc3c(=O)n2-c2ccccc2)c2ccccc21 (centres undefined)	-0.788
CC(=O)NC1=NN(C(C)=O)C(C)(CS(=O)(=O)c2ccc(C)c(C)c2)S1 (centres undefined)	-0.323
CCN1CCN(c2nc(C)c3c(n2)CCCC3=O)CC1	0.0036
C=CCN1C(=O)CN=C1Nc1cc(C)cc(C)c1	0.608
COc1ccc(N2CC(NC(=O)NCCC(C)C)CC2=O)cc1 (centres undefined)	-0.149
Cc1ccccc1C(=O)NC(NC(=S)Nc1ccc(S(N)(=O)=O)cc1)C(Cl)(Cl)Cl (centres undefined)	-0.0195
COc1ccc(S(=O)(=O)N(CC(=O)NC(C)C)Cc2ccccc2)cc1	-0.329
COc1ccccc1NC(=O)CNC(=O)c1ccccc1C	0.371
O=C(/C=C1\NC2(CCCC2)Cc2ccccc21)N1CCOCC1	-0.0389
Cc1cccc(C)c1OCC(=O)Nc1nnc(C2CCCO2)s1 (centres undefined)	-0.229
Cc1ccc(-n2c(Cc3cccs3)nnc2SCC(=O)Nc2ccc(F)c(F)c2)cc1	-0.996
CCOC(=O)c1[nH]c2ccccc2c1NC(=O)CCN1CC(C)OC(C)C1 (centres undefined)	-0.182
COc1ccccc1NC(=O)N1CCC(c2nnc(SCC(N)=O)n2C)CC1	0.198
CCOC(=O)CN(C(=O)CN1CCC(n2nnc3cc(C)ccc32)CC1)c1ccccc1	-0.262
O=C1c2ccccc2C(Nc2ccc(S(=O)(=O)N3CCCCCC3)cc2)N1Cc1ccco1 (centres undefined)	-0.686
COCCNc1nc(SCC(=O)N2CCN(c3ccccc3OC)CC2)nc2ccccc12	-0.345
CCOC(=O)Cn1c2c(c(=N)c3c1CCC3)CCCC2	-0.104
CCc1nc(N2CCN(S(=O)(=O)c3ccc(Br)cc3)CC2)c2c(C)c(C)sc2n1	-0.0531
CCn1cc(C(=O)O)c(=O)c2cc(Br)ccc21	-0.0402

SMILES	z-score
Cc1ccc(NC(=O)C(c2ccc(Cl)cc2Cl)N2CCCC2)cc1 (centres undefined)	-0.623
CCC(C)C1C(C#N)=C(N)Oc2n[nH]c(-c3ccccc3)c21 (centres undefined)	-1.15
COc1ccc(S(=O)(=O)N(C)CC(=O)NCCC2=CCCCC2)cc1OC	-0.175
CCOc1ccccc1-n1c(SCC(=O)NC(C)CC)nnc1-c1ccoc1C (centres undefined)	-0.551
COC(=O)c1ccccc1NC(=O)NCC1CCCO1 (centres undefined)	-0.359
Cc1ccc(C2C(C#N)=C(N)Oc3n[nH]c(-c4ccccc4)c32)o1 (centres undefined)	-0.499
O=C(NCc1ccccc1)NC1CC2CCC(C1)N2Cc1ccco1 (centres undefined)	0.345
COc1ccc(CCn2c(=N)c(C(=O)NCc3ccco3)cc3c(=O)n4cccc(C)c4nc32)cc1	-0.705
Clc1cccc(Nc2c3c(nc4ncnn24)CCC3)c1	0.0902
COc1ccc2nc(C)cc(SCC(=O)NNC(=O)COc3cccc4ccccc34)c2c1	0.0715
O=C(CSc1nc2c(c(=O)n1-c1ccc(F)cc1)SCC2)NCC1CCCO1 (centres undefined)	-0.639
C=CCn1cc(C(=O)N2CCN(C)CC2)c(=O)c2cc(S(=O)(=O)N3CCCC3)ccc21	-0.00979
O=C1CC(c2ccccc2)Cc2nc3ncnn3cc21 (centres undefined)	-0.0228
Cc1ccc(S(=O)(=O)N2CCC(C(=O)NCc3ccncc3)CC2)cc1	-0.238
Cc1ccc(C(=O)c2cncc(Br)c2)cc1	-0.162
O=C(CSc1nnc(CCc2nc3ccccc3[nH]2)n1-c1ccccc1)NCc1ccccc1	-1.02
COC(=O)CC1=C(C)C(=O)CC2C(C)(C)CCCC12C (centres undefined)	0.0399
O=C(O)/C(=C1\OC(=O)c2ccccc21)c1ccccc1	-0.194
CCOc1c(OC(C)=O)ccc(/C=C/c2ccc3cccc(OC(C)=O)c3n2)c1[N+](=O)[O-]	-0.227
Cc1cc(C)nc(NC(=O)Cc2cccs2)n1	0.27
O=C(Nc1ccc(Cl)c([N+](=O)[O-])c1)c1cnccn1	-0.322
S=C(NCCc1ccccc1)N1CCN(Cc2ccc(Cl)c(Cl)c2)CC1	-0.404

SMILES	z-score
CCCCCC1NC(=O)NC1CCCCCC(=O)O (centres undefined)	0.269
COc1nc(-c2ccc(Cl)cc2)ccc1-c1noc(-c2ccncc2)n1	-0.255
COC(=O)c1sc(NC(=O)C(C)C)c(C(=O)OC)c1C	0.892
CCOc1ccc(S(=O)(=O)N2CCN(c3ccccc3OC)CC2)c2cccnc12	0.036
CCn1c(CNC(=O)c2ccco2)nnc1SCC(=O)Nc1cc(C(F)(F)F)ccc1Cl	-0.203
O=C(NCc1ccccc1)c1cccc(NC(=O)c2ccco2)c1	-0.189
O=C(CN1N=C(c2ccccc2)CCC1=O)NCCN1CCc2ccccc2C1	-0.165
Cc1nn(-c2ccccc2)c(Cl)c1/C=N/NC(=O)c1ccco1	-0.687
COc1ccc(OCCNC(=O)C(c2ccccc2)c2ccccc2)cc1	-0.173
NC(=O)/C=C\C(=O)Nc1cccc(C(F)(F)F)c1	-0.114
CCN(CC)S(=O)(=O)c1ccc2oc(SCC3CN=C(c4ccc(OC)cc4)S3)nc2c1 (centres undefined)	-1.19
COc1ccccc1-c1nnc(NC(=O)c2ccccc2F)o1	-0.0456
CCOC(=O)CSc1ccc2nnc(-c3cccnc3)n2n1	0.122
CCn1c(=O)n(CC(=O)NCc2ccccc2OC)c(=O)c2ccccc21	-0.295
CCOc1ccc(NC(=O)CC2C(=O)N(c3ccc(OC)cc3)C(=O)N2CCc2cccs2)cc1 (centres undefined)	-0.164
CCOC(=O)c1cnc(SCC(=O)Nc2cc(OC)ccc2OC)nc1N	-0.697
CCc1ccc(/C=c2\s/c(=C\C(=O)C(C)(C)C)[nH]c2=O)cc1	active: 7.24
CCOC(=O)C1=C(c2ccccc2)O/C(=C(/C#N)C(F)(F)F)S1	1.84
Cc1cc(OCCOc2cccc3cccnc23)cc(C)c1Cl	-0.211
CN(C)c1ccc(C(CNS(=O)(=O)c2ccc3ccccc3c2)c2c[nH]c3ccccc23)cc1 (centres undefined)	-0.162
O=C(Cn1c(-c2cscn2)nc2ccccc21)Nc1ccccc1F	-0.043
